# Measured values as given in the supplement of paper PMC11417369.
# ± gives the standard deviation of the averaged measurements. Some of the results follow.
# Tested on: PfAP2-EXP AP2 domain (GST-tagged)
# Assay: gcPBM binding intensity (ln(normalized median fluorescence intensity)); higher = stronger DNA binding
# Procedure, shortened: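 Binding of GST-tagged P. falciparum DNA-binding domains, expressed in E. coli and used at about 25 μg on average, was carried out for 1 h in 1× PBS containing 1% milk, 0.2 mg/ml BSA, 0.5% salmon testes DNA and 0.03% Triton X-100. The target was an Agilent 4 × 180k array of primer-extended double-stranded 36-bp intergenic genomic probes plus negative controls, read with Alexa488 anti-GST antibody at 488 nm. Binding intensity is the highest Masliner-normalised natural-log median intensity across replicate spots of either probe orientation.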
row,Sequence,gcPBM binding intensity (ln)
1,TTTATTAAGAAACACACACACACACCCAAAATAAAA [CACACA_site242],8.91 ± 0.57
2,AACAAAATAAAAAGTAATCTTATTTATTAAAATTTT [CACACA_negctrl_site419],8 ± 0.32
3,TTTTTGTCTGCATACGCACACACGTGGACCATCTTA [CACACA_site8303],9.09 ± 0.48
4,AAAGAAAGAAAACACACACACATATATATATATCAA [CACACA_site3743],8.84 ± 0.35
5,TATATATATATATGTACACACACACCGATAAATAAA [CACACA_site8041],10.21 ± 0.085
6,CTATTTAAAATATGAACACACATTATTTGTTTTAGA [CACACA_site2713],8.21 ± 0.42
7,AAAAAAAAAAATACTAGTACGTAAAATTATATAAAT [XGTACX_site3019],8.8 ± 0.41
8,AATATAGGAATATGCACACATATATACCTACATACA [CACACA_site4939],8.38 ± 0.23
9,ATATCATTATATAGTTGTACATATTTATTTATTTAT [XGTACX_site8995],8.67 ± 0.4
10,GATATGTGTATAATATGTACATATATATATATATAT [XGTACX_site6531],10.2 ± 0.5
11,ATTTCCCATACACGTTGTACAATGTAGAGAAAGTAT [XGTACX_site4586],8.69 ± 0.4
12,TACGTATCATAATTTTATTTTATATATATTCACAAA [XGTACX_negctrl_site144],8.51 ± 0.56
13,ATATATATATGGAAGTGTACTTATATAGCATACTAG [XGTACX_site5130],9.54 ± 0.15
14,AGCGTATAACATATGACACACACACCGACATACACA [CACACA_site8532],8.7 ± 0.57
15,AAATTTTTATAATTATCACACATTGAATTGTGGTCT [CACACA_site4343],8.56 ± 0.39
16,AACAATTATTGTAATGCATGCACTGAATATAGAAAG [TGCATGCA_site889],10.3 ± 0.24
17,ATTCACAAATATATGGTGCATAATATATATATATAT [GTGCAC_site9674],9.99 ± 0.3
18,AATATGTAAATATGGGTGCTTTAAAATATATTCATT [GTGCAC_site9583],8.56 ± 0.11
19,TTCCAATGATAAAATTGTACTTGAAGAAAATTTTTT [XGTACX_site4607],8.08 ± 0.38
20,TTATATAACACGGGGAGGACACAAGAAATAAAGAGC [XGTACX_site2148],9.13 ± 0.29
21,GCTAATAATAAAAGCATAATGAACAAACACCCAGTA [CACACA_negctrl_site806],9.03 ± 0.34
22,TTTTTCTGTTTTTATAGCCTTCTCATAATACATAAA [TGCATGCA_negctrl_site355],8.71 ± 0.26

row,Sequence,gcPBM binding intensity (ln)
1,ATTCGGATCTATAAGTGTACACAATCTAGCGAAAAG [XGTACX_site3088],8.77 ± 0.4
2,TATAATAAATCGAACTGTACATATATATATATATAT [XGTACX_site7097],10.2 ± 0.33
3,TATACGCAGAAACACACACACAAAAAAAAAAAAAAA [CACACA_site427],8.08 ± 0.49
4,ATTTTTTTTGCTAAGTGTACACAAATGTTTATTAAT [XGTACX_site7440],9.04 ± 0.27
5,TTTATTCAAATATAATGTACTTTCTACAAATTCAAT [XGTACX_site8119],8.23 ± 0.34
6,CATATATAAATATATACACACATATATATATATATA [CACACA_site1365],10 ± 0.35
7,CAGATAAGATTTTGTGGTACTATTTATTAAATTAGA [XGTACX_site2644],8.2 ± 0.38
8,ATATTTTCCCTTTATAGGAGCACAAAAATTAAATGT [CACACA_negctrl_site1114],8.51 ± 0.35
9,AAATATTACTCCTCAAGTACACATAAAAAAAAAATA [XGTACX_site2085],8.55 ± 0.52
10,TTTTATTTTCGATGATGTACATTAAATTATACAGTA [XGTACX_site6053],8.47 ± 0.32
11,AATATACAAAATAAATAAAATATATATATATATATA [CACACA_negctrl_site216],10.2 ± 0.28
12,TATTTTTTTTGATATTGTACTTTTTTATTATTTTTT [XGTACX_site566],8.6 ± 0.41
13,TAAAAATTTAAGAAAACATGCATCTAACATATATAT [TGCATGCA_site342],8.77 ± 0.54
14,AAGTAAAATAAGTATACACACATAAATATGTAAATA [CACACA_site6467],8.6 ± 0.33
15,TTACATGCTAAAATTTGTACATATATGATAAATATT [XGTACX_site2648],8.44 ± 0.38
16,ATACATAAATTTATACGTACATATATAGATACATAA [XGTACX_site675],8.64 ± 0.35
17,TTGTTTTCACCAAATACACACAAGCATACACCCCAT [CACACA_site2717],9.27 ± 0.57
18,TATTTATTGTGATACTTATATTATTTCATGATTAAT [CACACA_negctrl_site738],8.38 ± 0.33
19,ACTTTATTATATATTTGTACATATATTTTTAATTTC [XGTACX_site4144],8.88 ± 0.32
20,TCTACATCTGTATATAAACACACAACAAAAATGCTT [CACACA_site9271],8.4 ± 0.47
21,GTATATATGTATGTATGTACTTATAAAGTTGCATAT [XGTACX_site5616],8.49 ± 0.27
22,AATGTGTAGACACGCACACACAAAAAAATATTTATA [CACACA_site7384],8.46 ± 0.6

row,Sequence,gcPBM binding intensity (ln)
1,TATATATTTCAATAATGTACATATAATATATATATT [XGTACX_site4124],8.51 ± 0.31
2,TTCTTACACAAAAAAATGAAATCAATCAAAAAAAAA [CACACA_negctrl_site869],8.26 ± 0.55
3,AAATTATATATAAAATGTACATATGTAGGTAATTTT [XGTACX_site5047],9.02 ± 0.51
4,AAGTAATCATCATAAAGTACTAAATTATATTGTCAA [XGTACX_site5841],8.31 ± 0.43
5,GAAAATATATTTAAGATGCACTTTAAAAATGTACTT,8.52 ± 0.24
6,ACATTCTGATGGTGATTATTAATTATTACAAAAATT [CACACA_negctrl_site283],8.16 ± 0.47
7,CAATTTATTATATATGTGCACATATAATTTTACAAA,8.76 ± 0.18
8,TAATTATTTTTATTGTTGCACTAGTAAAATTTTAAG [GTGCAC_site9946],8.62 ± 0.28
9,AATACAAATATATATGCACACACATATACATACATA [CACACA_site8677],8.54 ± 0.17
10,TACATTTTAATATAAGCATGCCTTTAGTTTTTTTCT [TGCATGCA_site829],9.04 ± 0.35
11,TTTTTTTTTTCTTTTTTTTATTATATTAACGGAATT [GTGCAC_negctrl_site104],8.21 ± 0.42
12,AATAAACAAATAAATAAACACACAATATATGTATAT [CACACA_site9268],8.44 ± 0.42
13,AAAAAGAAATACAAATAATATATATATATATATATT [TGCATGCA_negctrl_site458],8.45 ± 0.26
14,CATAAAAATTGAAGCACACACACAAAAGAAATACAA [CACACA_site1112],8.87 ± 0.38
15,ATCATTTCTATATAAGCACACACGTGGAATTTTTTT [CACACA_site2786],8.95 ± 0.4
16,TTTCTTTAACAAGTTAAACACACATACATATATACA [CACACA_site8810],8.58 ± 0.49
17,AAAATAAATATATTATCCACGTTGTATATATATATA [XGTACX_negctrl_site136],9.93 ± 0.34
18,TTACTTATATGCATAGTGCAAATTTGGTAAATATCT,8.93 ± 0.33
19,CACATACAGATATATACACACAAATATAAATACACA [CACACA_site6512],8.64 ± 0.49
20,AATAAATATAAAAATGCACACACACTAATAAAAAAA [CACACA_site8201],8.92 ± 0.4
21,AACTTGTATTTATACACACACACACTAGCTTTTTTT [CACACA_site5132],8.71 ± 0.59
22,AGAATTAAAAACAGTTGTACAAAAAGTTGTATAAAT [XGTACX_site411],8.66 ± 0.37

row,Sequence,gcPBM binding intensity (ln)
1,AGTAATAAATTTTATACATGCATAAAAAAAAAAAAA [TGCATGCA_site661],8.85 ± 0.35
2,TATAGCTTTCATTATACACACATCAAAAATTTAAAT [CACACA_site227],8.51 ± 0.44
3,TTAAAAATCATTTAAGAACACACAAATATTTCCATT [CACACA_site8418],8.58 ± 0.69
4,TATATTTATTTTTAATGTACATATTTAAGAAAACTA [XGTACX_site4920],8.54 ± 0.2
5,GACTCATTAAGGATTATTCCTAATGATCAAAAGAAC [CACACA_negctrl_site515],8.54 ± 0.4
6,TATATAATTCAAAAATGTACATGAAATATAAATATT [XGTACX_site7984],8.62 ± 0.28
7,TGATTCTTTTCAAAGTGTACAGTAATTTTTATGTAA [XGTACX_site8452],8.38 ± 0.11
8,AAGTTTTCTTAAAGATGTACTTTTTAAAAATAAAAT [XGTACX_site3063],8.19 ± 0.3
9,AAATATATTGCATATATACACACGTATATATATTAA [CACACA_site2759],8.31 ± 0.34
10,ATATCAAGCTATGAGAAAAAAAAAAAGAAAAAAAAA [CACACA_negctrl_site1370],8.12 ± 0.36
11,ATATTATAAATTATAGGTACACACAAAAAAAAAAAG [XGTACX_site2637],8.89 ± 0.44
12,TTAAATAAAAAAATAACACACATATAAATCTATATG [CACACA_site7482],8.39 ± 0.33
13,GCCATTAATTTATACACACACATTATAACTTTTTAT [CACACA_site6492],8.93 ± 0.39
14,TATCAGCAATGGAAAACATGCAAAAAATTAATATAT [TGCATGCA_site623],8.89 ± 0.42
15,TCTTCAAAGACACAATCACACACATACATAAATATA [CACACA_site8128],8.58 ± 0.54
16,ATCAAAAATGTTATATATATATATATATATATATAT [TGCATGCA_negctrl_site71],10.2 ± 0.45
17,AATACGTTTCAAAAATGTACACATATATCATAAATA [XGTACX_site8962],8.505 ± 0.078
18,ATTATATTAATTTATAGTACAATATTTATATATATG [XGTACX_site4668],8.35 ± 0.36
19,TATATATTACTTTTTTGTACGAATTTTACAACTACG [XGTACX_site3473],8.88 ± 0.39
20,TATTAAAATATTCTCACACACCAAAATATGTATGTA [CACACA_site6565],8.13 ± 0.47
21,AAAAAAAAAAAAAAAAAAAGAAAAGAAAATAGGGTT [GTGCAC_negctrl_site421],8.56 ± 0.52
22,AAAAGACATTTTTTTTTATAAATACACACGTACGTG [TGCATGCA_negctrl_site281],8.54 ± 0.52
